Molecules are shown by their SMILES. Out of some 46,000 compounds screened, about 60 (0.1%) were called active. About 3% were inconclusive and are not listed. Calls follow the shape of the dose curve; as a rule, active = well fitted inhibition curve with a large enough effect; inconclusive = small, poorly fitted or top-dose-only effect; inactive = no such curve, though single readings can be large or run the other way. Some of the results follow.

This experiment is described as follows: Primary qHTS assay for Inhibitors of ovarian cancer metastasis using an organotypic tumor microenvironment (TME) model. Also: nearly all actives have a fitted effect of over 65% in size.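 As to activity change, negative = inhibition: plate controls were DMSO wells for no effect and tomatine positive control wells for full effect.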 As to conditions: SKOV3ip1-GFP adhesion/invasion on 3D omental model, fluorescence; series mostly up to 45.8 µM; activity change, negative = inhibition: at the top concentration. The gist of the method: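 Adhesion/invasion was scored as fixed GFP-labeled SKOV3ip1 cell counts (488/509 nm), normalized to DMSO and tomatine controls. Cancer cells in serum-free medium, with four compound doses (0.36-46 umol/L), sat 2 hr at RT then 16 hr at 37 C on a 48 hr fibroblast/mesothelial/ECM culture.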
On the technique in general: In qHTS, concentration-response curves come from the screen itself.
Turning to `CCC1CN(C(=O)N2CCC(C(=O)Nc3cc(C)ccc3C)CC2)c2ccccc2O1` (stereo not drawn), the compound was classed as inactive.
Turning to `CCCCN(C)CCCNC(=O)CN1C(=O)COc2ccc(S(=O)(=O)N3CCOCC3)cc21`, the “activity change, negative = inhibition” value is inactive: 3.69%.
Regarding `COc1cccc(N2CC(NC(=O)c3ccc4c(c3)OCO4)CC2=O)c1` (stereo not drawn), the compound was called inactive.
For `Cc1nc2nc(-c3ccc(Cl)cc3Cl)nn2c(C)c1CCC(=O)Nc1ccc(F)cc1`, the result was inactive.
Regarding `CC(NC(=O)c1ccc(Nc2nc3ccccc3n3nnnc23)cc1)c1ccccc1` (stereo not drawn), the “activity change, negative = inhibition” value was inactive: -19.1%.
For the compound `COc1ccc(-c2c(C)nn3c4c(cnc23)C(=O)CC(c2ccccc2)C4)cc1` (stereo not drawn), the result was inactive.
In the case of `O=C(CS(=O)(=O)c1cccc2nsnc12)NCc1ccc(Cl)cc1`, the “activity change, negative = inhibition” value was inactive: -1.3%.
As to `Cc1cc(C)c(NC(=O)CCCN2C(=O)COc3ccc(C)cc32)c(C)c1`, the “activity change, negative = inhibition” value was inactive: -1.9%.
Consider `CC(=O)c1ccc(NC(=O)C2CCCN(S(=O)(=O)c3ccc4c(c3)CCCN4C(C)=O)C2)cc1` (stereo not drawn), for which the “activity change, negative = inhibition” value is inactive: 5.14%.
For the compound `COc1ccccc1N1CCN(S(=O)(=O)c2c(C)sc3ncn(CC(=O)Nc4ccc(C(F)(F)F)cc4)c(=O)c23)CC1`, the “activity change, negative = inhibition” value is inactive: 8.09%.
As to `COC(=O)c1sc(NC(=O)c2cc3nc(-c4ccc(Br)cc4)cc(C(F)(F)F)n3n2)c(C(=O)OC)c1C`, the “activity change, negative = inhibition” value is inactive: 8.56%.
As for `CCc1ccc(NC(=O)c2cc3nc(-c4ccc(C)cc4)cc(C(F)(F)F)n3n2)cc1`, the result was inactive.
With `CCOC(=O)c1c(NC(=O)Cc2coc3cc(C)ccc23)sc2c1CCCC2`, the “activity change, negative = inhibition” value was inactive: 6.23%.
Turning to `O=C(O)Cc1sc(Nc2ccccc2Cl)nc1-c1ccccc1`, the “activity change, negative = inhibition” value is inactive: 9.89%.
The same measure, in the same setting: in the case of `O=C(Cn1ccc2cc(S(=O)(=O)N3CCCCC3)ccc21)NCCc1ccc(Cl)cc1` it was inactive: 7.43%; in that of `Cc1ccc(OCC(=O)Nc2ccccc2C(=O)OCc2cc(=O)n3ccsc3n2)cc1C`, inactive: -2.69%; in that of `COc1ccc(CCNC(=O)CN(c2cc(C(F)(F)F)ccc2Cl)S(C)(=O)=O)cc1`, inactive: 9.54%.
`Cc1cccc(C)c1N1CC(c2nc3ccccc3n2CC(=O)OC(C)C)CC1=O` (stereo not drawn): the “activity change, negative = inhibition” value is inactive: 4.46%.
Turning to `COc1ccccc1Nc1nn2c(=O)c3ccc(C(=O)N4CCCCC4)cc3nc2s1`, the “activity change, negative = inhibition” value is inactive: -28.7%.
Turning to `COc1ccc(CCC(=O)Nc2nc3ccc(Cl)cc3s2)cc1OC`, the “activity change, negative = inhibition” value is inactive: 17.6%.
`CCOC(=O)c1cc(S(=O)(=O)N2CCN(c3cc(C)ccc3C)CC2)[nH]n1`: the “activity change, negative = inhibition” value is inactive: 13.2%.
Consider `COc1ccc(CC(=O)NCc2nc3cccnc3n2Cc2ccc(C)cc2)cc1`, for which the “activity change, negative = inhibition” value is inactive: 12.8%.
In the case of `CCCN(CCC)C(=O)CSc1nc2ccccc2c(=O)n1Cc1ccco1`, the “activity change, negative = inhibition” value is inactive: -7.66%.
For the compound `COc1cc(-c2ccno2)ccc1S(=O)(=O)N1CCN(c2ccccc2F)CC1`, the “activity change, negative = inhibition” value was inactive: 0.796%.
`COC(=O)c1ccc(NC(=O)C(=O)NCCc2sc(-c3cccc(F)c3)nc2C)cc1`: the “activity change, negative = inhibition” value is inactive: 5.92%.
As for `COc1ccc(-c2cc3nccn3c(Nc3ncccc3C(N)=O)n2)cc1OC`, the “activity change, negative = inhibition” value was inactive: 41.9%.
As to `COc1ccc(NC(=O)CSc2nc3cc(OC)c(OC)cc3c3nc(-c4ccccc4)nn23)cc1Cl`, the compound was classed as inactive.
Turning to `Cc1ccc(-c2c(C)n3c4c(=O)n(C)c(=O)n(C)c4nc3n2-c2cccc(O)c2)cc1`, the “activity change, negative = inhibition” value was inactive: -4.95%.
Consider `Fc1ccc(-c2cc(-c3ccccc3)c3c(n2)-c2cc(F)ccc2OC3)cc1`, for which the compound was classed as inactive.
For `CC1CCN(S(=O)(=O)c2cc3c4c(c2)CC(=O)N4CCC3)CC1`, the “activity change, negative = inhibition” value is inactive: -3.4%.
Take `Cc1cc(C)cc(NC(=O)CSc2oc(-c3cccs3)nc2S(=O)(=O)c2ccccc2)c1`: the “activity change, negative = inhibition” value was inactive: -1.82%.
For the compound `COc1ccc(S(=O)(=O)NCC(c2ccco2)N2CCOCC2)cc1` (stereo not drawn), the “activity change, negative = inhibition” value is inactive: 9.6%.
Regarding `COc1cccc(OCc2nc3ccccc3n2CCOc2ccccc2C)c1`, the “activity change, negative = inhibition” value is inactive: -22.1%.
Still for that read-out and setting: in the case of `CCCCOc1ccc(CNC(=O)c2cnc3sc(N4CCOCC4)nn3c2=O)cc1` it was inactive: 3.39%.
With `CN(C)S(=O)(=O)c1ccc2c(c1)nnn2CCNC(=O)Nc1ccc(Br)cc1`, the result was inactive.
In the case of `O=C(C1CC1)N1CCN(c2nc3ccc(F)cc3s2)CC1`, the “activity change, negative = inhibition” value is inactive: -0.256%.
As to `Cn1c(=O)c2c(nc(NCc3ccccc3)n2Cc2ccccc2Cl)n(C)c1=O`, the compound was called inactive.
As for `Cc1ccc(C(=O)NCC(c2cccnc2)N2CCc3ccccc32)cc1C` (stereo not drawn), the “activity change, negative = inhibition” value is inactive: -0.645%.
`Cc1ccc(-c2nc3ncccc3o2)cc1NC(=O)c1cccc(OCC(C)C)c1`: the call was inactive.
In the case of `O=[N+]([O-])c1cn2c(n1)OC[C@@H](OCc1ccc(OC(F)(F)F)cc1)C2`, the “activity change, negative = inhibition” value was inactive: 1.8%.
`Cc1ccc(C)c(Nc2nn3c(=O)c4ccc(C(=O)NC5CCCCC5)cc4nc3s2)c1`: the “activity change, negative = inhibition” value was inactive: -2.15%.
`Cn1nnc2c(C(N)=O)ncn2c1=O`: the “activity change, negative = inhibition” value was inactive: 2.91%.
Consider `O=C(CCn1ccc2cc(S(=O)(=O)N3CCCC3)ccc21)NCc1cccc(Br)c1`, for which the “activity change, negative = inhibition” value is inactive: -6.18%.
Same read-out and setting: in the case of `CCOC(=O)C(C)Oc1cccc2c(=O)n(CC(=O)Nc3ccc4c(c3)OCCO4)ccc12` (stereo not drawn) it was inactive: -13.6%.
In the case of `Cc1cccc(CN2CCc3nc(N4CCN(c5ccccn5)CC4)ncc3C2)c1`, the result was inactive.
Consider `Cc1c(C)n(Cc2ccccc2)c2ccc(C(=O)NCc3ccco3)cc12`, for which the “activity change, negative = inhibition” value was inactive: -5.05%.
With `CCc1ccc(NC(=O)Cn2c(=O)n(CCC(=O)NCc3ccc4c(c3)OCO4)c(=O)c3ccccc32)cc1`, the compound was called inactive.
On to `CCC1CN(C(=O)Nc2cc(C)cc(C)c2)c2ccccc2O1` (stereo not drawn), for which the “activity change, negative = inhibition” value is inactive: -6.86%.

For the origin of these results see PubChem BioAssay AID1963576 (National Center for Advancing Translational Sciences (NCATS), 2024).
